Experimental data reported in PubChem BioAssay AID1460 (National Center for Advancing Translational Sciences (NCATS), 2008).
Screen size: about 270,000 compounds; about 5,800 (2.1%) were called active. Inconclusive means that the source gave no clear call. Such entries were picked first, then a sample of the others. The call rests on the fitted dose curve; in most records, active means well fitted inhibition curve with a large enough effect; inconclusive means small, poorly fitted or top-dose-only effect; inactive means flat fitted curve, though single readings scatter. A potency beside an inconclusive call is a rough fit, not a confirmed value.

target: Microtubule-associated protein tau (Homo sapiens) (UniProt P10636); assay: qHTS for Inhibitors of Tau Fibril Formation, Thioflavin T Binding; conditions: recombinant tau K18 P301L (four-repeat tau fragment), heparin-induced fibrillization, ThT fluorescence; series mostly up to 57.4 µM; further: nearly all actives have a fitted effect of over 55% in size
Outline: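 Tau K18 P301L fragment (15 uM unlabeled plus 0.24 uM Alexa 594-labeled) in 100 mM sodium acetate pH 7 with compound, fibrillization induced by 20 uM heparin for 6 hr at 37 C. Thioflavin T (30 uM) added, fluorescence read after 1 hr (ex 450, em 510 nm).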
Potency means the concentration at half of the fitted maximal effect; tags describe the fitted curve by direction and shape.

Chain of UniProt P10636 (P10636 whole entry, looked up, the tested form may be a part): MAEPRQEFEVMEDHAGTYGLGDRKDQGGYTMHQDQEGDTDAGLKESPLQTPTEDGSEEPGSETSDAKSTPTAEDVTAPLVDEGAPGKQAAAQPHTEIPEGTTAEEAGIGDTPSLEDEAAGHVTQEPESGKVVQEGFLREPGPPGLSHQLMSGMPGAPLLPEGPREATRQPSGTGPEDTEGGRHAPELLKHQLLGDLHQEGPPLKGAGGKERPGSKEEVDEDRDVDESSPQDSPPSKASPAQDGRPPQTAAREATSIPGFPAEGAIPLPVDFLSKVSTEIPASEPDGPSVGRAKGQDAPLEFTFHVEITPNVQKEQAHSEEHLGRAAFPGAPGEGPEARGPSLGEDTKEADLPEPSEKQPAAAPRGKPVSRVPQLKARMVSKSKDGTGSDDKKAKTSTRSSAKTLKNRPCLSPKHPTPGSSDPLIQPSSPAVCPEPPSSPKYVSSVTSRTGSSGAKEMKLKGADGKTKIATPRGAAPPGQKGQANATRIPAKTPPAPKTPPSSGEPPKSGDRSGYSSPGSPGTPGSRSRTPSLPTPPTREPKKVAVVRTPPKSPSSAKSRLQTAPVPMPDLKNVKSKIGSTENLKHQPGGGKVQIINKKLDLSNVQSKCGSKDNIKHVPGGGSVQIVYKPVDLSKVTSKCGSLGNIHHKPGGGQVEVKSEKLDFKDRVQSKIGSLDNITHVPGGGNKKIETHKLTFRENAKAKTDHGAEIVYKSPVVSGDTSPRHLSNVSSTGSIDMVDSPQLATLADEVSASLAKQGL

| Compound | Potency |
| --- | --- |
| COCCn1c(-c2ccco2)csc1=Nc1cccnc1 | inconclusive: 20 µM [inhibitor, partial curve] |
| COc1ccc(CNC(=O)Cc2c(C)c3cc4c(C)coc4c(C)c3oc2=O)cc1OC | inconclusive: 39.8 µM [inhibitor, single point] |
| CC(C)N1C(=O)S/C(=C/c2ccccc2OCc2ccc(C(=O)O)cc2)C1=O | inconclusive: 22.4 µM [inhibitor, single point] |
| CN(Cc1ccccc1)c1ccc(N2C(=O)CCC2=O)cc1[N+](=O)[O-] | inconclusive: 15.8 µM [inhibitor, partial curve] |
| O=C(NNc1cccc(Cl)n1)c1ccc(Cl)cc1Cl | inconclusive: 11.2 µM [inhibitor, partial curve, poor fit] |
| Cc1ccc(C(NC(=O)N2CCOCC2)=C(Cl)Cl)cc1F | inactive |
| C=C(C)C(=O)Nc1cccc(C2=NOC3(C2)C[C@@H](C(N)=O)N(C(=O)/C=C/C=C/C)C3)c1 (stereo partly drawn) | inactive |
| CCOC(=O)C(O)(C1C(=O)CC(C)(C)CC1=O)C(F)(F)F (stereo not drawn) | inconclusive: 15.8 µM [inhibitor, partial curve] |
| COC(=O)Nc1ccc(SCC(=O)c2ccc(Cl)cc2)cc1 | inconclusive: 15.8 µM [inhibitor, partial curve] |
| O=C(CSc1ncc(S(=O)(=O)c2ccc(Br)cc2)c(=O)[nH]1)Nc1ccc2c(c1)OCCO2 | inconclusive: 28.2 µM [inhibitor, single point] |
| CC(=O)NC(=S)Nc1ccc(NC(=O)c2cccs2)cc1 | inconclusive: 3.55 µM [inhibitor, partial curve] |
| Cc1oc(/N=C/c2ccc(O)cc2O)c(C#N)c1C | inconclusive: 2.82 µM [inhibitor, full curve] |
| O=C(CSc1nccn1-c1ncc(C(F)(F)F)cc1Cl)c1ccc(Cl)cc1 | active: 17.8 µM |
| CC(C)c1ccc(NC(=O)Cn2cc(S(=O)(=O)Cc3ccccc3Cl)c3ccccc32)cc1 | inactive |
| O=C(Nc1ccc2oc(-c3cccc(F)c3)nc2c1)c1ccc2ccccc2c1 | inconclusive: 0.398 µM [inhibitor, full curve, poor fit] |
| CCOc1cc(C2NN=C(c3ccccc3)S2)ccc1OCc1ccccc1Cl (stereo not drawn) | inconclusive: 7.94 µM [inhibitor, partial curve, poor fit] |
| Cc1ccc(-n2[nH]c(C)c(/C=N/NC(=O)c3ccc([N+](=O)[O-])cc3)c2=O)c(C)c1 | inconclusive: 15.8 µM [inhibitor, partial curve] |
| COCCSc1nnc(NC(=O)C2CC(=O)N(c3ccccc3)C2)s1 (stereo not drawn) | inactive |
| COc1ccccc1CC(=O)Nc1ccc2nc(Nc3cccc(Cl)c3)cc(C)c2c1 | inconclusive: 3.55 µM [inhibitor, partial curve] |
| CC(C)C(=O)Nc1ccc2nc(SCC(=O)N3CCc4ccccc43)sc2c1 | inactive |
| S=c1[nH]nc(COc2ccc3c(c2)OCO3)n1-c1ccccc1 | inactive |
| CC(C)C(=O)Nc1ccccc1C(=O)N/N=C/c1ccc([N+](=O)[O-])cc1 | inconclusive: 14.1 µM [inhibitor, partial curve] |
| Cc1ccc(-n2c(SCC(=O)c3ccccc3)nc3c([nH]c4ccccc43)c2=O)cc1 | inactive |

| Compound | Potency |
| --- | --- |
| Cc1ccccc1CSCc1nc(N)nc(Nc2ccccc2C)n1 | inactive |
| COc1ccc(/C=N/N(Cc2ccccc2)c2ccccc2)cc1O | inconclusive: 17.8 µM [inhibitor, partial curve, poor fit] |
| Cc1nn(-c2cccc(C(F)(F)F)c2)c(Cl)c1/C=N/Nc1cccc(C(=O)O)c1 | inconclusive: 14.1 µM [inhibitor, partial curve] |
| CC(=O)c1ccc(Nc2c3c(nc4ccccc24)CCCC3)cc1 | inactive |
| NC(=O)c1c(NC(=O)Cn2nc(C(=O)O)c3ccccc3c2=O)sc2c1CCCC2 | inconclusive: 5.01 µM [inhibitor, partial curve] |
| CCSc1ccc(C(=O)Nc2cccc(C)n2)cc1[N+](=O)[O-] | inconclusive: 28.2 µM [inhibitor, single point] |
| O=C(/C=C/c1cccc([N+](=O)[O-])c1)Nc1cccc(NC(=O)c2cccs2)c1 | inconclusive: 12.6 µM [inhibitor, partial curve] |
| Cc1ccc2oc(C(=O)Nc3sc4c(c3C(=O)NCc3ccco3)CCC4)cc(=O)c2c1 | inconclusive: 10 µM [inhibitor, partial curve] |
| Cc1cc(C)n(-c2ccc(C(=O)Nc3ccc4c(c3)OCO4)cc2)n1 | inconclusive: 17.8 µM [inhibitor, partial curve] |
| CCOC(=O)C(C(=O)OCC)C(Nc1cccc(Br)c1)c1ccccc1 (stereo not drawn) | inconclusive: 25.1 µM [inhibitor, partial curve] |
| Cc1nc2c(c(C)nn2C(C)(C)C)c(C)c1CCC(=O)Nc1ccc(F)cc1 | inactive |
| N/N=C(\Cc1cscn1)c1ccc(O)cc1O | inconclusive: 10 µM [inhibitor, partial curve, poor fit] |
| O=c1[nH]c2ccc(S(=O)(=O)N3CCC(Cc4ccccc4)CC3)cc2o1 | inconclusive: 22.4 µM [inhibitor, partial curve] |
| CCC(=O)Nc1ccc(C(=O)N/N=C/c2c(C)[nH]c3ccccc23)cc1 | active: 11.2 µM |
| COc1ccc(NS(=O)(=O)c2cc(NC(=O)CC(=O)c3ccc([N+](=O)[O-])cc3)ccc2C)cc1 | inconclusive: 7.94 µM [inhibitor, full curve] |
| Cc1ccc(C2CC(=O)N3CN(Cc4ccco4)CSC3=C2C#N)cc1 (stereo not drawn) | active: 25.1 µM |
| S=C(NCCc1ccccc1)Nc1ccc(Cl)cc1Cl | inactive |
| CCOc1ccc(N=c2scc(-c3ccccc3)n2CCO)cc1 | inconclusive: 5.62 µM [inhibitor, partial curve] |
| N#Cc1cc([N+](=O)[O-])ccc1N1CCN(c2ccccc2O)CC1 | inconclusive: 12.6 µM [inhibitor, partial curve] |
| CN1CCN(c2nc(Nc3ccccc3)nc(N)c2[N+](=O)[O-])CC1 | inconclusive: 12.6 µM [inhibitor, partial curve] |
| Cc1cc2cc(CNC(=O)c3ccc4c(c3)OCO4)ccc2[nH]1 | inconclusive: 17.8 µM [inhibitor, single point] |
| COc1ccc2[nH]c3c(c2c1)CCNC3=O | inconclusive: 39.8 µM [inhibitor, single point] |
| Clc1ccc(SCc2cc(-c3ccc(Cl)cc3)on2)cc1 | inconclusive: 11.2 µM [inhibitor, partial curve] |

| Compound | Potency |
| --- | --- |
| CCCC1S/C(=N/N=C/c2ccco2)NC1=O (stereo not drawn) | inactive |
| CCNc1nc(-c2cc(C)n(Cc3ccco3)c2C)cs1 | inconclusive: 25.1 µM [inhibitor, partial curve] |
| O=[N+]([O-])c1ccc(O)c(-c2ccnc3cc(-c4ccccc4)nn23)c1 | inconclusive: 14.1 µM [inhibitor, partial curve] |
| COc1ccc2c(c1)CCc1cnc(N)nc1-2 | inconclusive: 17.8 µM [inhibitor, partial curve] |
| COc1ccccc1CCNC(=O)C1CCN(c2nnc(C)c3c(C)n(-c4ccc(C)cc4)nc23)CC1 | inconclusive: 35.5 µM [inhibitor, single point] |
| COc1ccc(C(CC(=O)Nc2ccc(Br)cn2)N2Cc3ccccc3C2=O)cc1 (stereo not drawn) | inconclusive: 3.55 µM [activator, single point] |
| Cc1ccc(NC(=O)CN2C(=O)N/C(=C/c3cc(C)n(-c4ccc(C(=O)O)cc4)c3C)C2=O)cc1 | inconclusive: 17.8 µM [inhibitor, partial curve] |
| CCc1ccccc1-n1nnnc1-c1cnccc1C(F)(F)F | inactive |
| COC(=O)N/N=C/c1cn(Cc2ccccc2F)c2ccccc12 | inactive |
| N=C1CCC(=N)c2c1c(O)c1ccccc1c2O | active: 12.6 µM |
| O=C(/C(=C/c1cccc(Cl)c1)c1nc2ccccc2[nH]1)c1ccccc1 | inconclusive: 31.6 µM [inhibitor, single point] |
| NN/C(=C\[N+](=O)[O-])Nc1ccc(Cl)cc1 | active: 15.8 µM |
| CC(=O)c1ccc(N2CCN(C(=O)CCCn3c(=O)[nH]c4ccsc4c3=O)CC2)cc1 | inconclusive: 0.398 µM [inhibitor, full curve] |
| COc1ccc(CCNC(=O)c2c(C)oc3ncn(CC(C)C)c(=O)c23)c(OC)c1 | inconclusive: 20 µM [inhibitor, single point] |
| O=C(NCc1cccnc1)C1CCN(S(=O)(=O)c2cccs2)CC1 | active: 3.98 µM |
| CCOC(=O)Cn1c(=O)oc2cc(S(=O)(=O)N3CCN(c4ccc(F)cc4)CC3)ccc21 | inactive |
| O=c1ccc(/C=C/c2ccccc2)nn1Cc1ccccc1 | inconclusive: 14.1 µM [inhibitor, partial curve] |
| CCC(CC)C(=O)Nc1cc(-c2nc3cccnc3s2)ccc1C | inactive |
| O=C(c1cccc(C(=O)N2CCN(c3ccccc3)CC2)c1)N1CCN(c2ccccc2)CC1 | inconclusive: 15.8 µM [inhibitor, single point] |
| CC(C)CC(=O)OCc1cc(=O)n2nc(C3CCCCC3)sc2n1 | inconclusive: 10 µM [inhibitor, partial curve, poor fit] |
| Cn1cccc1C(=O)OCC(=O)c1cc2ccccc2o1 | inconclusive: 3.98 µM [inhibitor, partial curve] |
| COc1ccc(-c2nc(C#N)c(NCCc3ccccc3)o2)cc1OC | inconclusive: 11.2 µM [inhibitor, partial curve] |
